# This is one part of the list. Most values come without repeats; read them as rough.
# Assays:
# [1] = system: IMR-32; test: drug sensitivity score (DSS), single drug with vehicle (DSS (score)); higher = more cytotoxic; extreme values may be limits of the assay; settings: 72 h; co-treatment: vehicle (DMSO)
# [2] = system: SK-N-AS; test: as above; settings: 72 h; co-treatment: vehicle (DMSO)
# [3] = system: SK-N-AS; test: drug sensitivity score (DSS) in combination with SL-176 (DSS (score)); higher = more cytotoxic; extreme values may be limits of the assay; settings: 72 h; co-treatment: SL-176 11.2 uM (IC25 in IMR-32)
# [4] = system: IMR-32; test: as above; settings: 72 h; co-treatment: SL-176 11.2 uM (IC25 in IMR-32)
# [5] = system: SK-N-AS; test: drug sensitivity score (DSS) in combination with GSK2830371 (DSS (score)); neuroblastoma lines; SL-176 and GSK2830371 are WIP1 inhibitors; higher = more cytotoxic; extreme values may be limits of the assay; settings: 72 h; co-treatment: GSK2830371 at IC25 in IMR-32
# [6] = system: IMR-32; test: as above; settings: 72 h; co-treatment: GSK2830371 at IC25 in IMR-32
# 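Wherever drug sensitivity score (DSS) in combination with GSK2830371 is given: neuroblastoma cells in 384-well plates, each compound at five concentrations, luminescence read-out, DSS derived from fitted concentration-response curve combining IC50 with minimum and maximum inhibition.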
# 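Wherever drug sensitivity score (DSS) in combination with SL-176 is given: cells in 384-well plates, luminescence read-out, each screening drug at five concentrations, DSS derived from the fitted concentration-response curve combining IC50 with minimum and maximum inhibition.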
# 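Wherever drug sensitivity score (DSS), single drug with vehicle is given: 384-well screen with five concentrations per compound and a luminescence read-out, DSS computed from the fitted dose-response curve combining IC50 with minimum and maximum inhibition.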
smiles,measurement,setting,value
Cc1cn(-c2cc(NC(=O)c3ccc(C)c(Nc4nccc(-c5cnccn5)n4)c3)cc(C(F)(F)F)c2)cn1 [Radotinib],drug sensitivity score,[1],0
same,drug sensitivity score,[2],2
same,drug sensitivity score,[3],3
same,drug sensitivity score,[4],15.6
same,drug sensitivity score,[5],1.6
same,drug sensitivity score,[6],0.5
CN(C)CCCOc1ccc(-c2ccc3ncc4c(c3c2)n(C2CCOCC2)c(=O)n4C)cn1,drug sensitivity score,[1],0
same,drug sensitivity score,[2],1
same,drug sensitivity score,[3],0.2
same,drug sensitivity score,[4],0.3
same,drug sensitivity score,[5],0.3
same,drug sensitivity score,[6],0.2
CC(C)(C)C[C@@H]1N[C@@H](C(=O)N[C@H]2CC[C@H](O)CC2)[C@H](c2cccc(Cl)c2F)[C@]12C(=O)Nc1cc(Cl)ccc12,drug sensitivity score,[1],19.9
same,drug sensitivity score,[2],0
same,drug sensitivity score,[3],0.7
same,drug sensitivity score,[4],22.3
same,drug sensitivity score,[5],0.2
same,drug sensitivity score,[6],27
CNC(=O)c1nn(C)c2c1C(C)(C)Cc1cnc(Nc3ccc(N4CCN(C)CC4)cc3)nc1-2 [Milciclib],drug sensitivity score,[1],18.5
same,drug sensitivity score,[2],14
same,drug sensitivity score,[3],13.6
same,drug sensitivity score,[4],21.6
same,drug sensitivity score,[5],15.3
same,drug sensitivity score,[6],21.2
CC[C@@H]1C(=O)N(C)c2cnc(Nc3ccc(C(=O)NC4CCN(C)CC4)cc3OC)nc2N1C1CCCC1,drug sensitivity score,[1],27.7
same,drug sensitivity score,[2],23.3
same,drug sensitivity score,[3],23.7
same,drug sensitivity score,[4],34.7
same,drug sensitivity score,[5],24.6
same,drug sensitivity score,[6],29.9
CC[C@@H]1C(=O)OC[C@@H]1Cc1cncn1C [Pilocarpine],drug sensitivity score,[1],0
same,drug sensitivity score,[2],0
same,drug sensitivity score,[3],0.1
same,drug sensitivity score,[4],0
same,drug sensitivity score,[5],0
same,drug sensitivity score,[6],0
COc1cc([C@@H]2c3cc4c(cc3[C@@H](O[C@@H]3O[C@@H]5CO[C@@H](C)O[C@H]5[C@H](O)[C@H]3O)[C@H]3COC(=O)[C@H]23)OCO4)cc(OC)c1O [Etoposide],drug sensitivity score,[1],27.7
same,drug sensitivity score,[2],5.8
same,drug sensitivity score,[3],4.6
same,drug sensitivity score,[4],29
same,drug sensitivity score,[5],6
same,drug sensitivity score,[6],28.8
O=S(=O)(c1cccc2c(O)nccc12)N1CCCNCC1 [Hydroxyfasudil],drug sensitivity score,[1],0
same,drug sensitivity score,[2],0.2
same,drug sensitivity score,[3],0
same,drug sensitivity score,[4],0
same,drug sensitivity score,[5],0.1
same,drug sensitivity score,[6],0
